Test results published in PubChem BioAssay AID602233 (National Center for Advancing Translational Sciences (NCATS), 2012).
Out of some 380,000 compounds screened, about 170 (0.045%) were called active. Calls come from the whole dose curve; as a rule, active = well fitted inhibition curve with a large enough effect; inconclusive = small, poorly fitted or top-dose-only effect; inactive = no such curve, though single readings can be large or run the other way. Only a part is listed here, and it is no random draw.

Target: Phosphoglycerate kinase, glycosomal (Trypanosoma brucei brucei) (UniProt P07378)
Experiment: qHTS Assay to Find Inhibitors of Phosphoglycerate Kinase; note: nearly all actives have a fitted effect of over 60% in size
Settings: PGK/GAPDH coupled, Kinase-Glo luminescence, 60 min; series mostly up to 57.5 µM; activity change, negative = inhibition: at the top concentration
Description: Several species of the Trypanosomatidae family of parasitic protozoans cause a spectrum of diseases throughout the tropical and subtropical world. Sleeping sickness, caused by two subspecies of Trypanosoma brucei, is endemic to areas of sub-Saharan Africa, while Chagas disease, a manifestation of Trypanosoma cruzi infection, is prevalent throughout Central and South America. In addition, many species of Leishmania are responsible for a range of cutaneous and visceral diseases, causing ulcers, destructive lesions and kalaazar, a lethal infection of the viscera. Collectively, these organisms infect 30 million people worldwide (~500 million live in endemic areas), and account for ~130,000 deaths annually. Given their debilitating and prevalent nature, trypanosomatid parasites impose a heavy medical, economic and social burden on entire populations, primarily in the developing world. The problem is further exacerbated by the fact that existing treatments have progressed little in the past 50 years, and current drugs show high toxicity and poor efficacy. […] Blood-stream stages of T. brucei are entirely dependent on glycolysis as a source of ATP, and the tricarboxylic acid cycle and oxidative phosphorylation are both repressed. Glycolysis in axenically cultured T. cruzi, representing the intracellular pathogenic stage, is also essential for these parasites. […] Previous studies have shown that the glycolytic enzyme, phosphoglycerate kinase (PGK), is a viable target for drugs to kill these parasites. […] NIH Molecular Libraries Probe Production Network [MLPCN] NIH Chemical Genomics Center [NCGC] MLPCN Grant: R03 MH093212 PI Name: Malcolm Walkinshaw, University of Edinburgh
3ul of substrate/PGK buffer (columns 1,2,5-48) are dispensed into Greiner white solid bottom 1536-well assay plates; columns 3-4 receive only TEA buffer as 0x PGK controls. Compounds are then transferred via Kalypsys pin tool equipped with 1536-pin array (10nl slotted pins, V&P Scientific, San Diego, CA). Following addition of compound, 1ul of GAPDH (100nM final concentration, all columns) is added to initiate the reaction (this upstream coupling enzyme is necessary for in-well production of PGK substrate, 1,3-bisphosphoglycerate (1,3-BPG), which is unstable and not commercially available). The plates are then incubated at room temperature for 60 minutes. Kinase-Glo Plus reagent is added (2ul) and plates incubated for 10 minutes, before being transferred to a ViewLux high-throughput CCD imager (PerkinElmer) wherein single end-point measurements of luminescence are acquired using a clear filter. All reagents are diluted in an assay buffer consisting of 100mM TEA (pH 7.6), 5mM MgCl2 and 0.01% Tween-20.
% is set by controls: 0 for no effect and ±100 for the full control effect; potency is the fitted concentration of half-maximal effect.

Compound | Potency | activity change, negative = inhibition | outcome
O=C(O)c1cccc(-n2cccc2/C=C2/NC(=O)N(c3ccc(Cl)cc3)C2=O)c1 | active: 3.16 µM |  | 
CCc1cc(C(c2ccc(OC)c(OC)c2)N2CCOCC2)c(NC(=O)c2ccccc2)s1 (centres undefined) |  | inactive: 20% | 
CC(C)(C)OC(=O)C[C@@H]1C/C=C\C[C@H](CC(=O)N[C@@H](CO)Cc2ccccc2)C(=O)N[C@H](C(C)(C)C)COC1=O |  | inactive: -0.616% | 
Nc1nc(=S)c2ncn([C@@H]3O[C@H](CO)[C@@H](O)[C@H]3O)c2[nH]1 |  | inactive: -4.42% | 
CCCCCC(=O)NNC(=S)NC(=O)c1ccccc1[N+](=O)[O-] |  | inactive: 30.8% | 
Cc1nn2c(c1-c1ccccc1)NC1=C(C(=O)CCC1)C2c1ccccc1 (centres undefined) |  | inactive: 28.9% | 
CS(=O)(=O)c1ccc2c(c1)sc1nc(=O)c(/C=C3/C=CC(=O)C(O)=C3)c(N)n12 | active: 12.6 µM |  | 
CC(C)(C)OC(=O)C[C@H]1C/C=C\C[C@H](CC(=O)NCCO)C(=O)N2CCC[C@@H]2COC1=O |  |  | inactive
Cc1cc(C)n(-c2nc3ccccc3n3c(C)nnc23)n1 |  | inactive: 3.22% | 
COc1ccc(CNc2ccc(C)c(C)c2)cc1 |  | inactive: 23.9% | 
Cc1nc(N)nc(N)c1/C=C/C(C)(C)c1ccc(Cl)cc1 |  | inactive: 3.35% | 
CC(/C=C\c1cccnc1)=C/C(=O)O |  | inactive: -6.93% | 
CCc1ccc(/C(C)=N/NC(=O)CNC(=O)/C=C/c2ccco2)cc1 | active: 14.1 µM |  | 
CC(C)N1CCN(Cc2cnc(N3CCCC3)s2)CC1CCO (centres undefined) |  | inactive: 19% | 
Cc1sc(NC(=O)c2ccc(Br)s2)c(C(N)=O)c1C |  | inactive: 21.2% | 
CC(C)(C)OC(=O)C[C@@H]1C/C=C\C[C@@H](CC(=O)N(CCO)Cc2ccccc2)C(=O)NC[C@@H](c2ccccc2)OC1=O |  | inactive: 1.42% | 
C=C(C)C(=O)Nc1cccc(C2=NOC3(C2)C[C@@H](C(N)=O)N(C(=O)c2ccc(Cl)cc2)C3)c1 (some centres undefined) | active: 2.24 µM |  | 
O=C(Nc1ncc([N+](=O)[O-])s1)c1cccs1 |  | inactive: -6.02% | 
O=c1cc(-c2ccc(O)c(O)c2)oc2cc(O)c([C@@H]3O[C@H](CO)[C@@H](O)[C@H](O)[C@H]3O)c(O)c12 |  | inactive: -1.15% | 
CCN1C(c2ccccc2)=C(c2ccccc2)S/C1=C/C=C1\SC(=S)N(C)C1=O |  | inactive: -29.3% | 
O=C(NN1C(=O)/C(=C/C=C/c2ccco2)SC1=S)c1ccncc1 | active: 14.1 µM |  | 
CCN(CC)c1ccc(NC(=O)c2ccco2)cc1 |  | inactive: 20.9% | 

Compound | Potency | activity change, negative = inhibition | outcome
CCc1nnc(NC(=O)C2CCCN2C(=O)Nc2ccccc2)s1 (centres undefined) |  | inactive: 22.1% | 
Cc1ccc(/C=N/NC(=O)CCn2nc(C)cc2C)c(C)c1 |  | inactive: -1.49% | 
COc1cc(OC)cc(C(=O)N[C@H](C(=O)Nc2nc(-c3cc(OC)ccc3OC)cs2)C(C)C)c1 |  | inactive: 31.8% | 
O=C(O)c1cc(O)c2c(c1)[C@@H]([C@H]1c3cc(C(=O)O)cc(O)c3C(=O)c3c(O[C@@H]4O[C@H](CO)[C@@H](O)[C@H](O)[C@H]4O)cccc31)c1cccc(O[C@@H]3O[C@H](CO)[C@@H](O)[C@H](O)[C@H]3O)c1C2=O | active: 3.16 µM |  | 
Cc1c(CC(=O)N2CCN(C(=O)C3COc4ccccc4O3)CC2)c(=O)oc2c(O)c(O)ccc12 (centres undefined) | active: 8.91 µM |  | 
CC1CN(C(=O)c2cc3c(=O)n4ccccc4nc3s2)CC(C)O1 (centres undefined) |  | inactive: 25% | 
CC=Cc1cc(OC)c2c(c1)C(C)C(c1ccc(O)c(OC)c1)O2 (centres undefined) |  | inactive: 17% | 
Cn1nc(C(=O)Nc2cccnc2)c2ccccc2c1=O |  | inactive: 19.1% | 
CC(C)c1nc(Cl)c(C#N)c2c1CSC(C)(C)C2 |  | inactive: 18.5% | 
Cc1ccc(S(=O)(=O)c2nc(NN(C)C)sc2Cl)cc1 |  | inactive: 42% | 
COc1ccc(-c2nc(-c3ccccn3)no2)cc1 | active: 15.8 µM |  | 
COc1ccc(S(=O)(=O)N2CCC(C(=O)NC3(C)CCS(=O)(=O)C3)CC2)cc1OC (centres undefined) |  | inactive: 20.3% | 
CC(=C/c1ccco1)/C=N/N1CCN(c2ccccc2)CC1 |  | inactive: -11.1% | 
CC(=O)Nc1cc(-c2ccccc2)ccc1O |  | inactive: 20.3% | 
O=C1/C(=C/c2ccncc2)CCc2ccccc21 |  | inactive: -19.5% | 
CCOC(=O)N1CCC(NC(=O)C2CCN(S(=O)(=O)N3CCC(C)CC3)CC2)CC1 |  | inactive: 25.1% | 
CC(C)(C)C(=O)COC(=O)C1=NN(c2ccccc2)C(=O)CC1 |  | inactive: 16.2% | 
Cn1c(=O)c2c(ncn2CCNC2=NCCCCC2)n(C)c1=O |  | inactive: 5.63% | 
Cc1cccc(Cn2c(O)c(N=NC(=S)Nc3ccccc3F)c3ccccc32)c1 |  | inactive: 15.9% | 
COc1cccc(C2N(c3ccccc3)CCN2c2ccccc2)c1OC |  | inactive: 8.41% | 
CC(=O)NC1C(=O)N(CCN2CCOCC2)c2ccc(C)cc21 (centres undefined) | active: 20 µM |  | 
CC(C)(C)OC(=O)C[C@@H]1C/C=C\C[C@@H](CC(=O)NCCO)C(=O)N2CCC[C@H]2COC1=O |  | inactive: -10% | 
